PubChem BioAssay AID1508642 (National Center for Advancing Translational Sciences (NCATS), 2021)
Screen size: about 43,000 compounds; about 200 (0.47%) were called active. Not shown: some 12% with an inconclusive outcome. Calls come from the whole dose curve; as a rule, active = well fitted cell-killing curve with a large enough effect; inconclusive = small, poorly fitted or top-dose-only effect, or effect the other way; inactive = flat fitted curve, though single readings scatter. The list shows a part of the results.

experiment: Cell viability qHTS assay in S16 Pmp22-F2sN cells; conditions: S16 Pmp22-F2sN Schwann cells viability, CellTiter-Glo, 24 h; series mostly up to 57.5 µM; activity change, negative = cytotoxicity: at the top concentration; note: nearly all actives have a fitted effect of over 65% in size
Outline: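 S16 Pmp22-F2sN Schwann cells (500-1,000/well) in phenol-red-free DMEM with 10% FBS received 23 nL compound by pin tool for 24 h at 37 °C. Viability was then read as CellTiter-Glo luminescence after 15 min at room temperature.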
% is set by controls: 0 for no effect and ±100 for the full control effect.

| SMILES | activity change, negative = cytotoxicity |
| --- | --- |
| CC1=C(C(N)=O)C(c2cccc(Br)c2)n2nc(SCc3ccccc3)nc2N1 (stereo not drawn) | inactive: 0.334% |
| O=C(NCc1cccnc1)C1CCN(Cc2cc3ccccc3n2Cc2cccc(Cl)c2)CC1 | inactive: -26.4% |
| CCCCc1nnc(SCc2cc(=O)c3cc(C(=O)OCC)ccc3[nH]2)n1C | inactive: 2.57% |
| CC(=O)Nc1cccc(C(=O)NCc2ccc3c(c2)CCN3C(=O)c2ccccc2)c1 | inactive: -0.123% |
| CCOc1ccc(CCNC(=O)Cn2nnc(-c3ccccc3)n2)cc1OCC | inactive: -4.75% |
| Cc1ccc2cccc(NC(=O)c3ccc(-c4cccc([N+](=O)[O-])c4)o3)c2n1 | inactive: 2.74% |
| COc1cc(OC)c(NC(=O)NC(C)c2c(-n3cccc3)sc(C)c2C)cc1Cl (stereo not drawn) | inactive: 0.513% |
| COc1cc(NS(=O)(=O)c2ccc(NC(=O)c3ccccc3C(=O)O)cc2)nc(OC)n1 | inactive: 0.348% |
| CCCCNC(=O)CSc1nc2nc(C)c(Cc3ccccc3C)c(C)n2n1 | inactive: 8.98% |
| CCC1CCc2nc3sc(C(=O)Nc4ccc(F)cc4F)c(N)c3cc2C1 (stereo not drawn) | inactive: 3.82% |
| COc1ccc(C(=O)N2CC(=O)Nc3ccc(F)cc3C2c2ccc(F)cc2)c(OC)c1 (stereo not drawn) | inactive: -1.04% |
| CCOC(=O)c1sc(NC(=O)/C=C/c2ccc(OCC)cc2)c(C(=O)OCC)c1C | inactive: 8.58% |
| CC(C)CC(=O)Nc1ccc(C(=O)OCc2cc(=O)n3nc(C(C)C)sc3n2)cc1 | inactive: 0.0516% |
| COc1cccc(C(=O)Nc2cc(-c3ccccc3)no2)c1 | inactive: -4.56% |
| COc1ccc(/C=C/c2nc(C#N)c(NCCc3ccc(OC)c(OC)c3)o2)cc1OC | inactive: -0.519% |
| O=C(Cc1cccc([N+](=O)[O-])c1)NCc1nc2cccnc2n1Cc1ccc(F)cc1 | inactive: -7.29% |
| CC(=O)c1cccc(NC(=O)C2CCCN(c3nnc(-n4cccc4)s3)C2)c1 (stereo not drawn) | inactive: 6.3% |
| CCCCNC(=O)CCn1c(=O)c2ccccc2n(Cc2ccccc2C#N)c1=O | inactive: 18.9% |
| CCC(=O)N1CCc2cc(Br)cc(S(=O)(=O)N3CCCC(C(=O)Nc4cccc(Cl)c4C)C3)c21 (stereo not drawn) | inactive: -4.99% |
| CCOc1ccc(CC(=O)Nc2c(C(=O)c3ccc(C)cc3)oc3ccccc23)cc1OCC | inactive: 0.14% |
| Cc1ccc(C(=O)COC(=O)C(CC(C)C)NC(=O)C2CCC(C)CC2)cc1 (stereo not drawn) | inactive: 0.432% |
| CCc1ccccc1NC(=O)c1ccc2nc(CCc3ccccc3)oc2c1 | inactive: -22.5% |
| Cc1ccccc1-c1nc(CS(=O)(=O)CC(=O)N2CCN(c3ccccc3)CC2)c(C)o1 | inactive: 20.6% |
| Cn1c(=O)cc(OCCCC(=O)Nc2ccc(F)cc2)c2ccccc21 | inactive: -18.6% |

| SMILES | activity change, negative = cytotoxicity |
| --- | --- |
| CCOc1ccc(NS(=O)(=O)c2cc(Br)cc3c2N(C(=O)C2CC2)CC3)cc1 | inactive: -9.17% |
| CCCN(CCC)CCCNC(=O)C1CCCN(S(=O)(=O)c2cccc3nsnc23)C1 (stereo not drawn) | inactive: 4.48% |
| Cc1cccc(CSc2cn(CC(=O)N3CCCC3)c3ccccc23)c1 | inactive: -9.58% |
| CCC(Oc1ccccc1)C(=O)Nc1ccc2oc(-c3ccc(OC)cc3)nc2c1 (stereo not drawn) | inactive: 0.218% |
| CC(=O)Nc1ccc(NC(=O)CCNS(=O)(=O)c2cccc3nsnc23)cc1 | inactive: 14.6% |
| CCc1ccc2oc(-c3cccc(NC(=O)c4ccc(N5CCC(C)CC5)c([N+](=O)[O-])c4)c3)nc2c1 | inactive: 2.87% |
| COc1cccc(NC(=O)Cn2cc(S(=O)(=O)N3CCCC3)c(S(=O)(=O)N3CCCC3)c2)c1 | inactive: -12.2% |
| CCOc1ccccc1CNC(=O)c1cc2cc(S(=O)(=O)N3CCCCC3)ccc2n1C | inactive: -20% |
| Cc1ccccc1CNC(=O)Cn1ncn2nc(-c3cccs3)cc2c1=O | inactive: -9.51% |
| CCOc1ccc(N(CC)S(=O)(=O)N2CCCC(C(=O)NCc3ccccc3Cl)C2)cc1 (stereo not drawn) | inactive: -4.44% |
| CCOc1cccc(CC(=O)N2CCc3c([nH]c4ccccc34)C2c2ccc(F)cc2)c1OCC (stereo not drawn) | inactive: 0.249% |
| Cc1ccc(CNC(=O)CSCc2ccc(F)cc2)cc1 | inactive: 8.2% |
| O=C(COc1ccc(S(=O)(=O)NC2CCCCC2)cc1)Nc1ccc(C(F)(F)F)cc1 | inactive: 11.8% |
| COc1ccc(-c2noc(CSCC(=O)Nc3cccc(C(F)(F)F)c3)n2)cc1OC | inactive: 4.01% |
| CCOc1ccc(C2Nc3ccccc3-c3nnc(SCc4ccccc4)nc3O2)cc1OC (stereo not drawn) | inactive: -4.78% |
| CC(C)CCN(Cc1ccco1)C(=O)c1cc2c(Cl)nc3ccccc3c2s1 | inactive: -2.24% |
| Cc1ccc(S(=O)(=O)CC(=O)Nc2sc3c(c2C#N)CCCCC3)cc1 | inactive: 1.22% |
| CCc1cccc(NC(=O)c2ccc(CN3C(=O)C(C)=C(c4ccc(OC)cc4)S3(=O)=O)cc2)c1 | inactive: -7.53% |
| CCOc1ccccc1NC(=O)Nc1nnc(N2CCCCCC2)s1 | inactive: -4.64% |
| Cc1ccccc1CNC(=O)C1CCCN(S(=O)(=O)N(C)c2ccc(F)cc2)C1 (stereo not drawn) | inactive: 0.116% |
| CCC(=O)N1CCc2cc(Br)cc(S(=O)(=O)CCC(=O)NCCc3ccc(Cl)cc3)c21 | inactive: -18.9% |
| CCCOc1ccc(-c2nn(-c3ccccc3)cc2C2NC(=O)NC(C)=C2C(=O)OC)cc1C (stereo not drawn) | inactive: -4.15% |
| Cn1c2ccccc2c2c(C(=O)N3CCN(c4ccc(F)cc4)CC3)cn(C3CCCCC3)c(=O)c21 | inactive: -3.64% |
| COc1cc(Cl)c(C)cc1NC(=O)CSc1ncc(S(=O)(=O)c2ccc(C(C)(C)C)cc2)c(=O)[nH]1 | inactive: -0.415% |
